For 30 molecules, activity change, negative = inhibition results are on record in PubChem BioAssay AID1745853 (National Center for Advancing Translational Sciences (NCATS), 2022).

Structures are written as SMILES. Several values for one entry are separate records, joined by “and”; a condition that tells them apart may be missing. Equal values may be shown once. The list shows a part of the results. These are further read-outs of the screen, such as a control signal, another cell line or another target. No call is given for them.

What all share (experiment): Primary Screen for Target Class Profiling of Small Molecule Inhibitors of Methyltransferases
For test [1], the target named is Glycine N-methyltransferase (Homo sapiens) (UniProt Q14749). The following applies: purified enzyme, MTase-Glo SAH luminescence; measured here: GNMT inhibition; at 40 µM; stronger effect = lower value. The procedure, abridged: (§1)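 Each enzyme was reacted with SAM and its substrate, with compounds tested once at 40 uM; SAH formed was read by MTase-Glo luminescence.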
For test [2], the target named is Guanidinoacetate N-methyltransferase (Homo sapiens) (UniProt Q14353). The following applies: purified enzyme, MTase-Glo SAH luminescence; measured here: GAMT inhibition; at 40 µM; stronger effect = lower value. The procedure, abridged: as §1
The target of test [3] is Histamine N-methyltransferase (Homo sapiens) (UniProt P50135). The conditions noted are these: purified enzyme, MTase-Glo SAH luminescence; measured here: HNMT inhibition; at 40 µM; stronger effect = lower value. The procedure, abridged: as §1
Test [4] has as its target Nicotinamide N-methyltransferase (Homo sapiens) (UniProt P40261). The following applies: purified enzyme, MTase-Glo SAH luminescence; measured here: NNMT inhibition; at 40 µM; stronger effect = lower value. The procedure, abridged:
as §1

In test [5] the target is Phenylethanolamine N-methyltransferase (Homo sapiens) (UniProt P11086). The following applies: purified enzyme, MTase-Glo SAH luminescence; measured here: PNMT inhibition; at 40 µM; stronger effect = lower value. The procedure, abridged:
as §1
% is scaled to controls: 0 for no effect and ±100 for the full control effect.

With `CCOC(=O)C(Cc1cccc(N2CCN(C(=O)OC(C)(C)C)CC2)c1)OC` (stereo not given), the activity change, negative = inhibition is -7.25% in test [1]; -7.11% in test [2]; -3.48% in test [3]; -18.6% in test [4]; -26.1% in test [5].

`CCOc1ccc(N(C(=O)c2ccc(OC)cc2)S(=O)(=O)c2ccc3c(c2)n(C)c(=O)n3C)cc1`: the activity change, negative = inhibition in test [1] is -4.94%; in test [2], -29.8%; in test [3], 8.45%; in test [4], -19.2%; in test [5] it was 1.39%.

In the case of `COc1ccc(OC)c(S(=O)(=O)N2CCCCC2c2nc(-c3cccnc3)n[nH]2)c1` (stereo not given), the activity change, negative = inhibition in test [1] was 5.62%; in test [2], 1.95%; in test [3] it was 1.3%; in test [4], 1.13%; in test [5], -4.58%.

As to `CC1(C)CCCC2(C)c3c4c(c(=O)oc(=O)c3=CCC12)=CCC1C(C)(C)CCCC41C` (stereo not given), the activity change, negative = inhibition is 4.75% in test [1]; 5.82% in test [2]; 12.3% in test [3]; -10.7% in test [4]; 7.2% in test [5].

Regarding `Cc1cc2c(cc3n2CC(C)(C(=O)NC2CCCCCCC2)N(Cc2cccc(Cl)c2)C3=O)o1` (stereo not given), the activity change, negative = inhibition was -7.39% in test [1]; 0.75% in test [2]; -7.76% in test [3]; -12.5% in test [4]; -7.68% in test [5].

For `CC(C)Cc1nnc(NC(=O)C[C@H]2NC(=O)c3ccccc3NC2=O)s1`, the activity change, negative = inhibition in test [1] is -27.5%; in test [2], -8.08%; in test [3], -2.15%; in test [4], -14%; in test [5], -1.57%.

On to `COCC(=O)O[C@]1(CCN(C)CCCc2nc3ccccc3[nH]2)CCc2cc(F)ccc2[C@@H]1C(C)C`, for which the activity change, negative = inhibition in test [1] was 1.95%; in test [2], 14.7%; in test [3] it was -0.753%; in test [4], -8.31%; in test [5] it was 3.05%.

With `O=C1C(N2CCN(Cc3ccc[nH]3)CC2)CCN1CCc1ccccc1` (stereo not given), the activity change, negative = inhibition was -10.8% in test [1]; -3.86% in test [2]; -2.31% in test [3]; -0.168% in test [4]; -8.21% in test [5].

Consider `CC(=O)Nc1cccc(-c2ccnc(-c3nnc(C)n3Cc3ccccc3)c2)c1`, for which the activity change, negative = inhibition was -9.11% in test [1]; -1.72% in test [2]; -9.87% in test [3]; -16.5% in test [4]; -0.891% in test [5].

With `CN1C(=O)c2cc(C(=O)NCc3cccs3)nn2CC1(C)C(=O)NC1CCCCC1` (stereo not given), the activity change, negative = inhibition amounted to 6.6% in test [1]; 0% in test [2]; 3.72% in test [3]; 4.75% in test [4]; 2.65% in test [5].

On to `C/C(=C\C(=O)C[C@@]12C(=O)O[C@]3(C)CC[C@H]1C[C@H]23)C(N)=O`, for which the activity change, negative = inhibition in test [1] was 1.99%; in test [2], 5.63%; in test [3], 8.31%; in test [4], -6.77%; in test [5] it was 2.06%.

For the molecule `O=S(=O)(c1ccccc1)c1nnn2c1nc(N1CCOCC1)c1ccccc12`, the activity change, negative = inhibition in test [1] amounted to 2.63%; in test [2], 0%; in test [3], 6.14%; in test [4] it was 5.97%; in test [5], 1.59%.

For `O=C(c1ccccc1)N1CC2(CCNC2)OCc2ccccc21` (stereo not given), the activity change, negative = inhibition in test [1] was -2.17%; in test [2], -4.7%; in test [3], -4.19%; in test [4] it was -2.17%; in test [5] it was -3.41%.

As to `CC(CNc1nc2c(S(=O)(=O)c3ccccc3)nnn2c2ccccc12)c1ccccc1` (stereo not given), the activity change, negative = inhibition in test [1] is -0.474%; in test [2], 0%; in test [3] it was 4.95%; in test [4], 0.47%; in test [5], 1.18%.

`O=S(=O)(NCC1(COc2cnccn2)C[C@@H](O)[C@@H](O)C1)c1ccc(F)cc1` (stereo not given in full): the activity change, negative = inhibition is -7.22% in test [1]; -6.38% in test [2]; -26.5% in test [3]; -24% in test [4]; -5.02% in test [5].

As to `Cc1ccc(N2C(=O)c3cc4occc4n3CC2(C)C(=O)NC2CCCCCC2)cc1C` (stereo not given), the activity change, negative = inhibition in test [1] is -2.89%; in test [2] it was 0%; in test [3] it was 6.28%; in test [4] it was -4.7%; in test [5] it was -1.17%.

Consider `CC(=O)NC[C@H]1OC[C@@H](NCC(C)(C)C)[C@@H]1O`, for which the activity change, negative = inhibition in test [1] was -1.54%; in test [2], -2.83%; in test [3] it was -1.88%; in test [4], -2.87%; in test [5] it was -4.53%.

On to `C[C@@H]1CN(C(=O)NCC2CCCCC2)CC[C@@]1(O)C1CCOCC1`, for which the activity change, negative = inhibition in test [1] was -5.25%; in test [2], -9.12%; in test [3] it was -5.86%; in test [4], -11.6%; in test [5] it was -5.59%.

Take `Cc1nc2cnccn2c1C(=O)N1CCC(C#N)CC1`: the activity change, negative = inhibition in test [1] is -3.49%; in test [2], -5.42%; in test [3], -1.98%; in test [4], -8.89%; in test [5], -8.73%.

Take `O=C(/C=C/C=C/c1ccc2c(c1)OCO2)N1CCCCC1`: the activity change, negative = inhibition was -0.55% in test [1]; -0.572% in test [2]; -6.33% in test [3]; -17% in test [4]; -3.11% in test [5].

For `C=Cc1ccc(Cn2nc3n(CCC)c(=O)c4ccc(Cl)cc4n3c2=O)cc1`, the activity change, negative = inhibition in test [1] is -4.11%; in test [2], 2.42%; in test [3], 3.16%; in test [4], -1.06%; in test [5], 0.657%.

Regarding `Cc1ccc2nc(C(NC(=O)C3CCN(CC(N)=O)CC3)C(C)C)[nH]c2c1` (stereo not given), the activity change, negative = inhibition in test [1] is -2.38%; in test [2] it was -1.83%; in test [3], -3.13%; in test [4], -8.29%; in test [5] it was -6.71%.

In the case of `O=c1c2ccccc2nc2n1CCc1c-2[nH]c2ccccc12`, the activity change, negative = inhibition is -17.6% and -9.51% in test [1]; -1.8% and 0.798% in test [2]; -3.67% and -5.5% in test [3]; -16.6% and -14.9% in test [4]; -8.5% and -5.99% in test [5].

As for `CCCC1c2cccn2CCN1C(=O)Nc1ccccc1OCC` (stereo not given), the activity change, negative = inhibition is 0.36% in test [1]; 2.65% in test [2]; -16% in test [3]; 5.96% in test [4]; 6.54% in test [5].

Consider `CC1CCC(NC(=O)C2(C)Cn3c(nc4ccccc43)C(=O)N2Cc2ccco2)CC1` (stereo not given), for which the activity change, negative = inhibition in test [1] is -4.74%; in test [2] it was 1.43%; in test [3], -5.18%; in test [4], -6.7%; in test [5] it was -6.17%.

Consider `Cc1cccc(Cn2nc3n(CCC(C)C)c(=O)c4ccc(C(=O)NC5CCCC5)cc4n3c2=O)c1`, for which the activity change, negative = inhibition in test [1] was 2.66%; in test [2], 5.7%; in test [3], 6.91%; in test [4], -0.978%; in test [5] it was 1.98%.

With `CCCn1cnc2c1c(=O)n(CCCCC(C)=O)c(=O)n2C`, the activity change, negative = inhibition in test [1] is -1.36%; in test [2] it was 5.25%; in test [3], 1.62%; in test [4], -5.97%; in test [5] it was 7.29%.

Turning to `COc1cccc(-c2noc(CN3CCC(c4nc(-c5cccn5C)no4)C3)n2)c1OC` (stereo not given), the activity change, negative = inhibition in test [1] is -8.47%; in test [2] it was -0.07%; in test [3], -0.478%; in test [4], -12.6%; in test [5] it was -1.82%.

In the case of `CCOc1ccc(N2C(=O)c3c(C(=O)OC)ncn3CC2(C)C(=O)NC2CCCC2)cc1` (stereo not given), the activity change, negative = inhibition in test [1] is 0.398%; in test [2] it was -1.51%; in test [3], -7.19%; in test [4] it was -2.33%; in test [5] it was -3.52%.

`O=C(C[C@@H]1C[C@H]2O[C@H](CNC3Cc4ccccc4C3)[C@@H](O)[C@H]2O1)N1CCC(F)(F)C1`: the activity change, negative = inhibition in test [1] is -0.416%; in test [2], 0.972%; in test [3] it was 2.28%; in test [4], -7.24%; in test [5], 7.42%.
